# The other results are listed elsewhere or left out.
# B1: PhoQ; a variant is named by its letters at X, in order, P23837 (parent)
# chain: MKKLLRLFFPLSLRVRFLLATAAVVLVLSLAYGMVALIGYSVSFDKTTFRLLRGESNLFYTLAKWENNKLHVELPENIDKQSPTMTLIYDENGQLLWAQRDVPWLMKMIQPDWLKSNGFHEIEADVNDTSLLLSGDHSIQQQLQEVREDDDDAEMTHSVAVNVYPATSRMPKLTIVVVDTIPVELKSSYMVWSWFIYVLSANLLLVIPLLWVAAWWSLRPIEALAKEVRELEEHNRELLNPATTRELTSLVRNLNRLLKSERERYDKYRTTLTDLTHSLKTPLXXLQXXLRSLRSEKMSVSDAEPVMLEQISRISQQIGYYLHRASMRGGTLLSRELHPVAPLLDNLTSALNKVYQRKGVNISLDISPEISFVGEQNDFVEVMGNVLDNACKYCLEFVEISARQTDEHLYIVVEDDGPGIPLSKREVIFDRGQRVDTLRPGQGVGLAVAREITEQYEGKIVAGESMLGGARMEVIFGRQHSAPKDE
# Variants of: B1
# Experiment: enrichment ratio after two sorts for PhoP signalling (ratio (wild type AVST 3.29)); higher = more functional
# Details: with PhoP (E. coli)
row,Variant,enrichment ratio
1,DKGP,≤ 0.25
2,QKTF,≤ 0.25
3,YEHW,≤ 0.25
4,VRNG,≤ 0.25
5,QAPV,≤ 0.25
6,RISP,≤ 0.25
7,ADPM,≤ 0.25
8,AYKY,≤ 0.25
9,PIGK,≤ 0.25
10,SCGE,3.51
11,TIGE,4.31
12,PFYC,≤ 0.25
13,ETPH,≤ 0.25
14,YEFI,≤ 0.25
15,AAIY,≤ 0.25
16,HHLA,≤ 0.25
17,DRVH,≤ 0.25
18,NFKN,≤ 0.25
19,VIVN,≤ 0.25
20,VGYY,≤ 0.25
21,SDHS,≤ 0.25
22,IQSH,≤ 0.25
23,GKDS,≤ 0.25
24,MNYD,≤ 0.25
25,QGCR,≤ 0.25

row,Variant,enrichment ratio
1,LANA,≤ 0.25
2,SKTK,≤ 0.25
3,QDQW,≤ 0.25
4,HMEY,≤ 0.25
5,SIEV,0.267
6,TPFN,≤ 0.25
7,GKYW,≤ 0.25
8,KETV,≤ 0.25
9,YCTN,≤ 0.25
10,ERGQ,≤ 0.25
11,YADP,≤ 0.25
12,PGEE,≤ 0.25
13,PYGF,≤ 0.25
14,INRW,≤ 0.25
15,EIDD,≤ 0.25
16,RFHE,≤ 0.25
17,YDER,≤ 0.25
18,SSFE,≤ 0.25
19,WFPK,≤ 0.25
20,NIMH,≤ 0.25
21,RDIY,≤ 0.25
22,QQTQ,≤ 0.25
23,PTLY,≤ 0.25
24,TNYC,≤ 0.25
25,ICNR,≤ 0.25

row,Variant,enrichment ratio
1,DDKW,≤ 0.25
2,TAKL,≤ 0.25
3,IVWY,≤ 0.25
4,GKAG,≤ 0.25
5,DKCV,≤ 0.25
6,YYNS,≤ 0.25
7,WNWL,≤ 0.25
8,KDLE,≤ 0.25
9,QMLH,≤ 0.25
10,WRSK,≤ 0.25
11,WSDP,≤ 0.25
12,TSYA,7.28
13,PHPP,≤ 0.25
14,KQQC,≤ 0.25
15,KYCA,≤ 0.25
16,IFHF,≤ 0.25
17,TVLF,≤ 0.25
18,GVFR,≤ 0.25
19,NPWY,≤ 0.25
20,ERIV,≤ 0.25
21,MTQR,≤ 0.25
22,FCII,≤ 0.25
23,VGSW,≤ 0.25
24,GMLY,≤ 0.25
25,INEW,≤ 0.25

row,Variant,enrichment ratio
1,FCLD,≤ 0.25
2,ARML,7.51
3,VHYW,≤ 0.25
4,YVPQ,≤ 0.25
5,KESR,≤ 0.25
6,ETVF,≤ 0.25
7,VRTI,≤ 0.25
8,MTGL,7.07
9,LPAI,≤ 0.25
10,PPVK,≤ 0.25
11,PMSY,≤ 0.25
12,DWPE,≤ 0.25
13,QLIE,≤ 0.25
14,HFVV,≤ 0.25
15,DCCP,≤ 0.25
16,IRVM,≤ 0.25
17,RMEH,≤ 0.25
18,ANNR,≤ 0.25
19,WLSP,≤ 0.25
20,SDRP,≤ 0.25
21,LRWI,≤ 0.25
22,TDWK,≤ 0.25
23,TDYG,≤ 0.25
24,LTWC,≤ 0.25
25,DCWP,1.12

row,Variant,enrichment ratio
1,SCDV,≤ 0.25
2,NDVY,≤ 0.25
3,HRAN,≤ 0.25
4,DPKY,≤ 0.25
5,EGTR,≤ 0.25
6,MRRH,≤ 0.25
7,QMFC,≤ 0.25
8,FLCY,≤ 0.25
9,FTAQ,≤ 0.25
10,LPEP,≤ 0.25
11,PQME,≤ 0.25
12,YSPT,≤ 0.25
13,EFKE,≤ 0.25
14,LGSC,≤ 0.25
15,TLPN,≤ 0.25
16,SQFW,≤ 0.25
17,MNMW,≤ 0.25
18,WDTV,≤ 0.25
19,WSSD,≤ 0.25
20,RDPN,≤ 0.25
21,LQKG,≤ 0.25
22,RHDK,≤ 0.25
23,RFSA,≤ 0.25
24,AMQR,≤ 0.25
25,NYHL,≤ 0.25

row,Variant,enrichment ratio
1,QRFS,≤ 0.25
2,IDQN,≤ 0.25
3,VYYD,≤ 0.25
4,WIQV,≤ 0.25
5,QMPH,≤ 0.25
6,NIRP,≤ 0.25
7,EDTR,≤ 0.25
8,FDLL,≤ 0.25
9,FSQI,≤ 0.25
10,YDRR,≤ 0.25
11,FGEY,≤ 0.25
12,STFT,≤ 0.25
13,IKHE,≤ 0.25
14,NFYL,≤ 0.25
15,PMEV,≤ 0.25
16,NLEN,≤ 0.25
17,DRRK,≤ 0.25
18,KETA,≤ 0.25
19,EQEY,≤ 0.25
20,PACC,≤ 0.25
21,AIMN,5.77
22,PFKM,≤ 0.25
23,TKDV,≤ 0.25
24,SRHD,≤ 0.25
25,LWCC,≤ 0.25

row,Variant,enrichment ratio
1,KLNM,≤ 0.25
2,RQLD,≤ 0.25
3,GFML,≤ 0.25
4,ANPH,≤ 0.25
5,FSMQ,3.93
6,TVGK,2.73
7,TPGY,≤ 0.25
8,QFDR,≤ 0.25
9,PIWI,≤ 0.25
10,IGSH,≤ 0.25
11,VKLV,≤ 0.25
12,SLMP,≤ 0.25
13,HPRM,≤ 0.25
14,KKVH,≤ 0.25
15,SGAW,≤ 0.25
16,MPQY,≤ 0.25
17,YFPM,≤ 0.25
18,WILW,≤ 0.25
19,FCVY,≤ 0.25
20,DHCT,≤ 0.25
21,AFKI,≤ 0.25
22,AYIR,≤ 0.25
23,ICKC,≤ 0.25
24,RETP,≤ 0.25
25,NYCF,≤ 0.25

row,Variant,enrichment ratio
1,ATIA,1.45
2,PTPI,≤ 0.25
3,RLAN,0.869
4,EEKK,≤ 0.25
5,RKNL,≤ 0.25
6,IAGC,≤ 0.25
7,MYHS,≤ 0.25
8,KSCA,≤ 0.25
9,QKAG,≤ 0.25
10,FGEN,≤ 0.25
11,RCFE,≤ 0.25
12,LMTH,≤ 0.25
13,DGET,≤ 0.25
14,GPDS,≤ 0.25
15,DGAD,≤ 0.25
16,TANV,17.9
17,NTPP,≤ 0.25
18,RNLS,≤ 0.25
19,QGCI,19.5
20,GDGG,≤ 0.25

# Reference: a collection of fitness landscapes (doi:10.1126/science.1257360)
